Values marked as one replicate rest on one cluster of the flow cell; about a third of the high ones do not repeat.
The sequences below were run on ATP (assay: switch fluorescence ratio, 500 uM ATP over buffer (Cy3 cluster intensity, sum of 5 cycles each) (fold (ratio)); higher = stronger signal-on switching upon ATP binding; sequences stand for … in TCGTCGGCAGCGTCAGATGTGTATAAGAGACAGTTTTTTTTTTTTTTTTTTTTTTTTT…TC). Details: aptamer strand: ATP DNA aptamer (quencher-CACCTGGGGGAGTATTGCGGAGGAAGG + anchor), 100 nM annealed; ATP concentration: 500 uM; one replicate.
In short: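 The fluorescence ratio divides summed target-cycle Cy3 intensity by summed buffer-cycle Cy3 intensity for each cluster and is averaged per switch-domain sequence. Cy3-labelled switching-strand clusters on a modified Illumina MiSeq flow-cell were annealed to 100 nM quencher-labelled ATP aptamer, then imaged in selection buffer and again after 15 min with 500 uM ATP at 22 °C. Five such cycles were run, with NaOH stripping and re-annealing between them, and clusters outside 100-1000 RFU were excluded.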
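Also: ATP exposure 15 min at 22 °C before imaging.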

Sequence | switch fluorescence ratio
ACGGGGCAAC | 1.07
ACGGGGGTA | 1.01
ACGGGGTCGA | 0.934
ACGGTAAAAT | 1.14
ACGGTCAAGG | 1.03
ACGGTCTG | 1
ACGGTGTGTT | 1.04
ACGGTTATAA | 1.05
ACGGTTATCC | 1.02
ACGGTTCTGG | 0.988
ACGGTTCTGT | 0.968
ACGGTTTGAC | 1.06
ACGGTTTTCT | 0.971
ACGTAAACAC | 1.2
ACGTAACTTT | 1.26
ACGTAAGCGG | 0.999
ACGTAATCTA | 1.22
ACGTAATGTA | 1.15
ACGTACAGCG | 1.37
ACGTACTTAA | 1.41
ACGTATGTGT | 1.08
ACGTATTTCG | 1
ACGTCACTAA | 1.52
ACGTCACTTA | 1.65
ACGTCAGTGG | 0.996

Sequence | switch fluorescence ratio
ACGTCCTTGG | 1.04
ACGTCGGAAA | 0.995
ACGTGAATGT | 1.04
ACGTGAGATA | 1.05
ACGTGCATCA | 1.08
ACGTGCGGGG | 1.02
ACGTGCTGGG | 0.963
ACGTGGAGAG | 1.02
ACGTGGGTTG | 0.997
ACGTGTCGT | 0.968
ACGTTATGGT | 1.13
ACGTTCCCAA | 1.21
ACGTTGACTG | 1
ACGTTTAACA | 1.33
ACGTTTATAT | 1
ACGTTTGAGA | 1.03
ACGTTTGTCT | 1.02
ACGTTTTGCA | 1.06
ACTAAAGTAG | 1
ACTAAGAACG | 1.04
ACTAAGGGTA | 1.05
ACTAATAGAG | 0.999
ACTAATGCG | 1.05
ACTACATATT | 1.06
ACTACCTCCC | 1.61

Sequence | switch fluorescence ratio
ACTACGGGA | 2.05
ACTAGGATA | 0.972
ACTAGGATCT | 0.994
ACTAGGGAG | 1.02
ACTAGGGATT | 1.07
ACTAGGGTAC | 1.05
ACTAGGTGAA | 1.16
ACTAGTCTGC | 0.998
ACTAGTTCAT | 0.985
ACTATACTTA | 1.24
ACTATATCGG | 1.1
ACTATATGGA | 1.07
ACTATCATAC | 1.21
ACTATCCTCT | 1.08
ACTATGCGGT | 1.03
ACTATGGGTT | 0.996
ACTCAATTGG | 0.996
ACTCACGGCG | 1.36
ACTCACTACC | 1.33
ACTCAGTGTA | 1.01
ACTCATAGGC | 1.07
ACTCCACCTC | 1.55
ACTCCAGCTT | 2.55
ACTCCCTCGC | 2.18
ACTCCGTTC | 4.96

Sequence | switch fluorescence ratio
ACTCCTGGGG | 1.31
ACTCGATTCG | 1.02
ACTCGCCCGG | 5.37
ACTCGCGGCC | 1.6
ACTCGCGGTT | 1.04
ACTCGGGGTC | 0.975
ACTCTATTC | 1.17
ACTCTCTAGG | 1.57
ACTCTGACAG | 1.09
ACTCTGCGCT | 1.36
ACTCTTACTC | 1.28
ACTCTTCGGT | 1.02
ACTCTTGACT | 1.05
ACTCTTTCGC | 1.05
ACTGACAGGG | 0.956
ACTGAGGTTA | 1.02
ACTGATTTAA | 1.03
ACTGCAACGC | 1.18
ACTGCAGCA | 1.09
ACTGCATACA | 1.14
ACTGCATCAA | 0.985
ACTGCATTGG | 1.12
ACTGCCCGTC | 1.1
ACTGCGATG | 1.07
ACTGCGCTAC | 2.74

— the supplement of paper PMC10126150
